Data published in patent US11198713B2, “Agents modulating beta-catenin functions and methods thereof” (FOG PHARMACEUTICALS, INC., priority 2017, dated 2021).
At least one peptide structure holds a part that was inferred or is arguable (an end, a ring closure or a residue). At least one compound was matched to its structure with a doubt left. Numbered stars: 1 amine (or outer) side, 2 acyl side, 3 side chain; on linkers, the order of the positions; unused ones are H or OH. Bridge positions count the residues as written; N and C are the ends. Square brackets hold non-standard residues; d marks the D form. Peptide text beside a SMILES is read from it. 3Aminoazetidine3carboxyl = O=C(C1(N[*:1])CN([*:3])C1)[*:2]; dαMeOrn(Me) = CN(CCC[C@@](C)(N[*:1])C(=O)[*:2])[*:3]; dαMeDab(Me) = CN(CC[C@@](C)(N[*:1])C(=O)[*:2])[*:3]; dαMeDap(Me) = CN(C[C@@](C)(N[*:1])C(=O)[*:2])[*:3]; αMeDab(Me) = CN(CC[C@](C)(N[*:1])C(=O)[*:2])[*:3]; X3 = O=C([C@@]1(N[*:1])CCN([*:3])C1)[*:2]; X1 = O=C([C@]1(N[*:1])CCN([*:3])C1)[*:2]; X2 = O=C(OCC=CCOC(=O)[*:2])[*:1]

How the values were obtained:
[1] = target: T1, full-length beta-catenin (Axin site) (Homo sapiens, UniProt P35222); assay: Competition fluorescence polarization assay (Axin site probe); type: binding; settings: for displacement of labeled Axin site probe: FIG. 7 Panel A; for Target Binding: Table 3 Part A, carbamate-stapled peptides
T1 construct: 15 nM full-length beta-catenin, 20 nM FITC labeled peptide in buffer
T1 sequence (P35222 1-781): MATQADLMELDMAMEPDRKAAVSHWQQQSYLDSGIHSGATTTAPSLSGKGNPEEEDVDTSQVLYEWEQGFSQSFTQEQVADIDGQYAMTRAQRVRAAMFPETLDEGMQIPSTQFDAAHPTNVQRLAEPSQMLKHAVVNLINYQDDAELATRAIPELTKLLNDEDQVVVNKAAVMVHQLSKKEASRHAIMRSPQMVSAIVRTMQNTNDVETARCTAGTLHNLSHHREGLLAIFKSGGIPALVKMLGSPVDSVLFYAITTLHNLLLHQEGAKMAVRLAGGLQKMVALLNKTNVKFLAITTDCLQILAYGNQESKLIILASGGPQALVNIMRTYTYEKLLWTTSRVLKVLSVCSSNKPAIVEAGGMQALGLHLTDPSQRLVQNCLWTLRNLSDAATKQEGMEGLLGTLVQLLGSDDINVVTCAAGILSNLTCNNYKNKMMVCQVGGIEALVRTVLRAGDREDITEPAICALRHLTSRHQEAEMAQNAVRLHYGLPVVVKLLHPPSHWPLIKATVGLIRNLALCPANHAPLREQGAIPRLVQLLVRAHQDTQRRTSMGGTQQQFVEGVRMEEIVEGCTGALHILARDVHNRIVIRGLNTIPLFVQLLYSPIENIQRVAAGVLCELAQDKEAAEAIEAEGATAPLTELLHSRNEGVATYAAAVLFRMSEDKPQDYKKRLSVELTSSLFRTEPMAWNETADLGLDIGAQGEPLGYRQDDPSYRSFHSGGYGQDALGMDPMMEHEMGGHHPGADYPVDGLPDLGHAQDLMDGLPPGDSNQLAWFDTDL
Outline: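 Competition FP: 15 nM full-length β-catenin pre-incubated 5 min with 20 nM FITC-labelled stapled Axin-site peptide, then titrated peptide added (3-fold series from 5 μM) for 15 min in the dark. Buffer 50 mM Tris pH 8.0, 250 mM NaCl, 2% glycerol, 0.5 mM EDTA; duplicate reads.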

[2] = target: T2, full-length beta-catenin (BCL9 site) (Homo sapiens, UniProt P35222); assay: BCL9 competition FP assay; type: binding; settings: FIG. 7 Panel B; 250 nM full-length beta-catenin, 20 nM 5FAM labeled peptide
T2 construct: 250 nM full-length beta-catenin, 20 nM 5FAM labeled peptide in buffer
T2 sequence (P35222 1-781): T1 sequence (P35222 1-781)

[3] = test system: TCF/LEF Luciferase reporter HEK293 cell lines; assay: TCF/LEF reporter assay; type: cell-based; settings: for TCF/LEF Reporter Inhibition at 10 μM: Table 2; for Beta-Catenin Luciferase Reporter % Inhibition at 10 μM: Table 3 Part A

SMILES	displacement of labeled Axin site probe [1]	potency in the competition FP assay relative to FPO217c Isomer 1 ([1]; better potency than Isomer 1)	displacement of labeled BCL9 site probe [2]	TCF/LEF Reporter Inhibition at 10 μM [3]	Beta-Catenin Luciferase Reporter % Inhibition at 10 μM [3]	TCF/LEF Reporter Activity ([3]; FIG. 2, dilution series, 18 hours)	Target Binding [1]
CC[C@H](C)[C@@H]1NC(=O)[C@H](Cc2c[nH]cn2)NC(=O)[C@H](C)NC(=O)[C@H](CC(=O)O)NC(=O)[C@H](CC(C)C)NC(=O)[C@H]([C@@H](C)CC)NC(=O)[C@](C)(NC(=O)[C@H](C)NC(C)=O)CCCCCCC=CCOC(=O)N2CC[C@@](C(=O)N[C@@H](CCCNC(=N)N)C(=O)N[C@H](C(=O)N[C@@H](Cc3c[nH]c4ccccc34)C(N)=O)C(C)C)(C2)NC1=O (single isomer, unassigned) [FPO217c Isomer 2, Ac-AR8ILDAHIMBRVW (SEQ ID NO: 280)]	displaced	> 10 fold	did not displace	72%	62% (Isomer 2)	Inhibition	
CC[C@H](C)[C@@H]1NC(=O)[C@H](Cc2c[nH]cn2)NC(=O)[C@H](C)NC(=O)[C@H](CC(=O)O)NC(=O)[C@H](CC(C)C)NC(=O)[C@H]([C@@H](C)CC)NC(=O)[C@](C)(NC(=O)[C@H](C)NC(C)=O)CCN(C)C(=O)OCC=CCOC(=O)N2CC[C@@](C(=O)N[C@@H](CCCNC(=N)N)C(=O)N[C@H](C(=O)N[C@@H](Cc3c[nH]c4ccccc34)C(N)=O)C(C)C)(C2)NC1=O [FP0597c, Ac-A-MG-I-L-D-A-H-I-MB-R-V-W-NH2] (Ac-A[dαMeDab(Me)]ILDAHI[X1]RVW-NH2; linker 2-9 via X2)	displaced		did not displace	81%	81%		Yes
CC[C@H](C)[C@@H]1NC(=O)[C@H](Cc2c[nH]cn2)NC(=O)[C@H](C)NC(=O)[C@H](CC(=O)O)NC(=O)[C@H](CC(C)C)NC(=O)[C@H]([C@@H](C)CC)NC(=O)[C@](C)(NC(=O)[C@H](C)NC(C)=O)CCN(C)C(=O)OCC=CCOC(=O)N2CC[C@](C(=O)N[C@@H](CCCNC(=N)N)C(=O)N[C@H](C(=O)N[C@@H](Cc3c[nH]c4ccccc34)C(N)=O)C(C)C)(C2)NC1=O [FP0598c, Ac-A-MG-I-L-D-A-H-I-MC-R-V-W-NH2] (Ac-A[dαMeDab(Me)]ILDAHI[X3]RVW-NH2; linker 2-9 via X2)				23%	23%		Yes
CC[C@H](C)[C@@H]1NC(=O)[C@H](Cc2c[nH]cn2)NC(=O)[C@H](C)NC(=O)[C@H](CC(=O)O)NC(=O)[C@H](CC(C)C)NC(=O)[C@H]([C@@H](C)CC)NC(=O)[C@](C)(NC(=O)[C@H](C)NC(C)=O)CN(C)C(=O)OCC=CCOC(=O)N(C)CC[C@@](C)(C(=O)N[C@@H](CCCNC(=N)N)C(=O)N[C@H](C(=O)N[C@@H](Cc2c[nH]c3ccccc23)C(N)=O)C(C)C)NC1=O [FP0601c, Ac-A-ME-I-L-D-A-H-I-MF-R-V-W-NH2] (Ac-A[dαMeDap(Me)]ILDAHI[αMeDab(Me)]RVW-NH2; linker 2-9 via X2)				30%	40%		Yes
CC[C@H](C)[C@@H]1NC(=O)[C@H](Cc2c[nH]cn2)NC(=O)[C@H](C)NC(=O)[C@H](CC(=O)O)NC(=O)[C@H](CC(C)C)NC(=O)[C@H]([C@@H](C)CC)NC(=O)[C@](C)(NC(=O)[C@H](C)NC(C)=O)CN(C)C(=O)OCC=CCOC(=O)N2CC[C@@](C(=O)N[C@@H](CCCNC(=N)N)C(=O)N[C@H](C(=O)N[C@@H](Cc3c[nH]c4ccccc34)C(N)=O)C(C)C)(C2)NC1=O [FP0604c, Ac-A-ME-I-L-D-A-H-I-MB-R-V-W-NH2] (Ac-A[dαMeDap(Me)]ILDAHI[X1]RVW-NH2; linker 2-9 via X2)				32%	46%		Yes
CC[C@H](C)[C@@H]1NC(=O)[C@H](Cc2c[nH]cn2)NC(=O)[C@H](C)NC(=O)[C@H](CC(=O)O)NC(=O)[C@H](CC(C)C)NC(=O)[C@H]([C@@H](C)CC)NC(=O)[C@](C)(NC(=O)[C@H](C)NC(C)=O)CN(C)C(=O)OCC=CCOC(=O)N2CC[C@](C(=O)N[C@@H](CCCNC(=N)N)C(=O)N[C@H](C(=O)N[C@@H](Cc3c[nH]c4ccccc34)C(N)=O)C(C)C)(C2)NC1=O [FP0605c, Ac-A-ME-I-L-D-A-H-I-MC-R-V-W-NH2] (Ac-A[dαMeDap(Me)]ILDAHI[X3]RVW-NH2; linker 2-9 via X2)				30%	50%		Yes
CC[C@H](C)[C@@H]1NC(=O)[C@H](Cc2c[nH]cn2)NC(=O)[C@H](C)NC(=O)[C@H](CC(=O)O)NC(=O)[C@H](CC(C)C)NC(=O)[C@H]([C@@H](C)CC)NC(=O)C2(NC(=O)[C@H](C)NC(C)=O)CN(C2)C(=O)OCC=CCOC(=O)N(C)CC[C@@](C)(C(=O)N[C@@H](CCCNC(=N)N)C(=O)N[C@H](C(=O)N[C@@H](Cc2c[nH]c3ccccc23)C(N)=O)C(C)C)NC1=O [FP0611c, Ac-A-MA-I-L-D-A-H-I-MF-R-V-W-NH2] (Ac-A[3Aminoazetidine3carboxyl]ILDAHI[αMeDab(Me)]RVW-NH2; linker 2-9 via X2)				56%	58%		Yes
CC[C@H](C)[C@@H]1NC(=O)[C@H](Cc2c[nH]cn2)NC(=O)[C@H](C)NC(=O)[C@H](CC(=O)O)NC(=O)[C@H](CC(C)C)NC(=O)[C@H]([C@@H](C)CC)NC(=O)C2(NC(=O)[C@H](C)NC(C)=O)CN(C2)C(=O)OCC=CCOC(=O)N2CC[C@](C(=O)N[C@@H](CCCNC(=N)N)C(=O)N[C@H](C(=O)N[C@@H](Cc3c[nH]c4ccccc34)C(N)=O)C(C)C)(C2)NC1=O [FP0616c, Ac-A-MA-I-L-D-A-H-I-MC-R-V-W-NH2] (Ac-A[3Aminoazetidine3carboxyl]ILDAHI[X3]RVW-NH2; linker 2-9 via X2)				51%	51%		Yes
CC[C@H](C)[C@@H]1NC(=O)[C@H](Cc2c[nH]cn2)NC(=O)[C@H](C)NC(=O)[C@H](CC(=O)O)NC(=O)[C@H](CC(C)C)NC(=O)[C@H]([C@@H](C)CC)NC(=O)C2(NC(=O)[C@H](C)NC(C)=O)CN(C2)C(=O)OCC=CCOC(=O)N2CC[C@@](C(=O)N[C@@H](CCCNC(=N)N)C(=O)N[C@H](C(=O)N[C@@H](Cc3c[nH]c4ccccc34)C(N)=O)C(C)C)(C2)NC1=O [FP0617c, Ac-A-MA-I-L-D-A-H-I-MB-R-V-W-NH2] (Ac-A[3Aminoazetidine3carboxyl]ILDAHI[X1]RVW-NH2; linker 2-9 via X2)				62%	62%		Yes
CC[C@H](C)[C@@H]1NC(=O)[C@H](Cc2c[nH]cn2)NC(=O)[C@H](C)NC(=O)[C@H](CC(=O)O)NC(=O)[C@H](CC(C)C)NC(=O)[C@H]([C@@H](C)CC)NC(=O)C2(NC(=O)[C@H](C)NC(C)=O)CN(C2)C(=O)OCC=CCOC(=O)N(C)CCC[C@](C)(C(=O)N[C@@H](CCCNC(=N)N)C(=O)N[C@H](C(=O)N[C@@H](Cc2c[nH]c3ccccc23)C(N)=O)C(C)C)NC1=O [FP0625c, Ac-A-MA-I-L-D-A-H-I-MI-R-V-W-NH2] (Ac-A[3Aminoazetidine3carboxyl]ILDAHI[dαMeOrn(Me)]RVW-NH2; linker 2-9 via X2)				20%	0%		Yes
CC[C@H](C)[C@@H]1NC(=O)[C@H](Cc2c[nH]cn2)NC(=O)[C@H](C)NC(=O)[C@H](CC(=O)O)NC(=O)[C@H](CC(C)C)NC(=O)[C@H]([C@@H](C)CC)NC(=O)[C@@](C)(NC(=O)[C@H](C)NC(C)=O)CCN(C)C(=O)OCC=CCOC(=O)N2CC[C@@](C(=O)N[C@@H](CCCNC(=N)N)C(=O)N[C@H](C(=O)N[C@@H](Cc3c[nH]c4ccccc34)C(N)=O)C(C)C)(C2)NC1=O [FP0626c, Ac-A-MF-I-L-D-A-H-I-MB-R-V-W-NH2] (Ac-A[αMeDab(Me)]ILDAHI[X1]RVW-NH2; linker 2-9 via X2)				53%	60%		Yes
